# Data published in PubChem BioAssay AID686979 (National Center for Advancing Translational Sciences (NCATS), 2013).
# Several values for one entry are separate records, joined by “and”; a condition that tells them apart may be missing. Equal values may be shown once. About 50,000 (12%) of roughly 420,000 compounds were called active. This list was built around the results that the source calls inconclusive (neither active nor inactive); the mix of calls is not that of the screen. Calls follow the shape of the dose curve; as a rule, active = well fitted inhibition curve with a large enough effect; inconclusive = small, poorly fitted or top-dose-only effect; inactive = flat fitted curve, though single readings scatter. No potency is given beside an inconclusive call; the fits are too rough.
# Assay: qHTS for Inhibitors of human tyrosyl-DNA phosphodiesterase 1 (TDP1): qHTS in cells in presence of CPT; also: nearly all actives have a fitted effect of over 55% in size
# Details: chicken DT40 Tdp1-/-;hTDP1 cells + 20 nM CPT, ATP luminescence, 48 h; activity change, negative = growth inhibition: at 46.2 µM (top of the series) unless noted
# In short: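 Cell growth measured by CellTiter-Glo luminescence after a minimum 48 h, 37 C compound exposure with 20 nM CPT in Tdp1-knockout DT40 cells stably expressing hTDP1, seeded 400/well; qHTS titration format.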
# % is scaled to controls: 0 for no effect and ±100 for the full control effect; potency is read from the fitted curve at half-maximal effect; tags tell the direction and shape of the fitted curve.
Compound,Potency,"activity change, negative = growth inhibition"
CC(C)C[C@H]1CN=C(Nc2ccccc2)N1CCC1CCCCC1,"inconclusive [inhibitor, single point]",–
Cc1ccc(S(=O)C(c2ccccc2)c2ccccc2)cc1 (stereo not given),"inconclusive [inhibitor, single point]",–
CC1CCCN(CCOc2ccc3ccccc3c2Br)C1 (stereo not given),"inconclusive [inhibitor, single point]",–
Cc1nc2ccccn2c(=O)c1NC(=O)c1ccccc1Cl,inactive,–
O=C(Nc1ccccc1C(=O)Nc1ccccn1)c1cc(F)c(F)cc1Cl,inactive,–
O=C(NCc1ccccc1Cl)c1csc2c1CCCCC2,"inconclusive [inhibitor, single point]",–
Cc1ccc(C)c(NC(=O)C(=O)NCCc2csc(-c3cccc(F)c3)n2)c1,"inconclusive [inhibitor, single point]",–
O=[N+]([O-])c1cccc2c(Cl)ccnc12,–,inconclusive: -30.4% [inhibitor]
Cn1c(=O)cc(SCC(=O)Nc2cccc(C#N)c2)c2ccc(Cl)cc21,inactive,–
O=C(c1ccccc1)N1CCN(Cc2cccc(Oc3ccccc3)c2)CC1,"inconclusive [inhibitor, single point]",–
COc1ccc(C(=O)/C=C/C(=O)N(CC(=O)NC2CCCCC2)Cc2ccccc2OC)c(O)c1,active: 1.64 µM,–
COc1ccc(C(C#N)=C2C=CC(=NO)C=C2)cc1,active: 5.17 µM,–
C[C@H](CO)N1C[C@H](C)[C@@H](CN(C)S(=O)(=O)c2ccc(F)cc2)Oc2ccc(NS(=O)(=O)c3ccccc3)cc2C1=O,inactive,–
CCOC(=O)[C@H]1[C@H]2COc3cc(OC)ccc3[C@@H]2N2C(=O)N(c3ccc(Br)cc3)C(=O)[C@@]12C,active: 25.9 µM,–
O=C(c1cc(C(=O)NCCc2ccccc2)c(=O)n(CCc2ccccc2)c1)c1cc(Cl)ccc1O,"inconclusive [inhibitor, single point]",–
Cc1cccc(NC(=O)Cn2cnc3c(oc4ccccc43)c2=O)c1C,"inconclusive [inhibitor, single point]",–
COC(=O)/C=c1/s/c(=C(/C#N)C(=O)N2CCOCC2)n(-c2ccccc2)c1=O,"inconclusive [inhibitor, single point]",–
COC(=O)N/N=C/c1ccccc1OCCOc1ccc(OC)cc1,inactive,–
COc1ccc(N2CCN(C(=O)Cc3noc4ccc(C)cc34)CC2)cc1,"inconclusive [inhibitor, single point]",–
COc1ccc(CNC(=O)CCCNC(=O)c2ccc(Cl)cc2)cc1OC,inactive,–
c1ccc2sc(-c3cc4c(c(OC5CCOC5)c3)OCCN(Cc3cccn3-c3nccs3)C4)nc2c1 (stereo not given),"inconclusive [inhibitor, partial curve, poor fit]",–
Cc1cc(C)cc(NC(=O)CCC(=O)Nc2nnc(C(C)C)s2)c1,inactive,–
O=C(Oc1ccccc1N1C(=O)C2CCCCC2C1=O)c1ccc(Cl)cc1 (stereo not given),–,inconclusive: -21.1% [inhibitor]
O=C(NNC(=O)c1ccccc1F)c1cccs1,inactive,–

Compound,Potency,"activity change, negative = growth inhibition"
Cn1c2ccccc2c2cc(C(=O)OCC(=O)N3CC(=O)Nc4ccccc43)sc21,"inconclusive [inhibitor, single point]",–
C=CCn1cc(C(=O)NCc2ccc(Cl)cc2)c(=O)c2cc(S(=O)(=O)N(CC)CC)ccc21,active: 20.6 µM,–
CCc1ccccc1NC(=O)Nc1cc(F)ccc1F,"inconclusive [inhibitor, single point]",–
COc1ccc(S(=O)(=O)N2CCC(C(=O)N3CCc4ccccc4C3)CC2)cc1OC,"inconclusive [inhibitor, partial curve]",–
O=C(/C=C/c1cccc(F)c1)Nc1cc(S(=O)(=O)N2CCOCC2)ccc1N1CCCC1,"inconclusive [inhibitor, partial curve]",–
S=c1[nH]nc(C2CCCCC2)n1/N=C/c1ccc(Br)s1,"inconclusive [inhibitor, single point]",–
Cc1ccc(CN2CCc3nc(N4CCN(C)CC4)ncc3C2)cc1,"inconclusive [inhibitor, single point]",–
Cc1ccc(NC(=O)COC(=O)c2ccc(OC(F)F)cc2)cc1S(=O)(=O)N1CCCCC1,"inconclusive [inhibitor, single point]",–
O=C(CCN1CCCCO1)NC1CCCc2c1cnn2-c1ccc(F)cc1F (stereo not given),"inconclusive [inhibitor, single point]",–
COCCn1c(SCC(=O)Nc2sccc2C(N)=O)nc2cc(Cl)ccc2c1=O,"inconclusive [inhibitor, single point]",–
O=[N+]([O-])c1ccc(N/N=C/c2c[nH]c3ccccc23)cc1,"inconclusive [inhibitor, single point]",–
COc1cc(C(=O)NNC(=O)C2CSC3(C)CCC(=O)N23)cc(OC)c1OC (stereo not given),inactive,–
COc1ccc(C(=O)N2CCC(c3ccncc3)CC2)cc1OC,inactive,–
CCc1ccc(NC(=O)Cn2ccn(-c3cccc(Cl)c3)c(=O)c2=O)cc1,"inconclusive [inhibitor, single point]",–
Cc1c(C(=O)N2CCCC(C)C2)sc2ncnc(N3CCCCC3C)c12 (stereo not given),"inconclusive [inhibitor, single point]",–
O=C(O)c1cc2c(s1)-c1ccccc1OC2,inactive,–
O=C1N(Cc2cccc(Cl)c2)C[C@@H]2C[C@@H](c3cccn3-c3nccs3)N3CCC[C@@]123,"inconclusive [inhibitor, single point]",–
CCOc1ccccc1C1CC(=O)NC(C)=C1C(=O)OCc1ccc(C)cc1 (stereo not given),"inconclusive [inhibitor, single point]",–
C/C(N)=C(\C#N)C(=O)NCc1ccccn1,inactive,–
Cc1ccc(S(=O)(=O)n2nc(-c3cccnc3)nc2N)cc1,"inconclusive [inhibitor, single point]",–
COc1ccc2sc(NC(=O)c3ccco3)nc2c1,"inconclusive [inhibitor, single point]",–
Cc1ccc(C)c(N2CCN(C(=O)c3ccc4c(c3)c(C)c(C)n4C)CC2)c1,active: 20.6 µM and active: 23.1 µM,–
COc1ccc(Nc2nnc(-c3ccc(C)c(S(=O)(=O)N4CCN(C)CC4)c3)c3ccccc23)cc1,"inconclusive [inhibitor, single point]",–
CC1CN(c2ccc(C(F)(F)F)cc2[N+](=O)[O-])CCN1S(C)(=O)=O (stereo not given),"inconclusive [inhibitor, single point]",–

Compound,Potency,"activity change, negative = growth inhibition"
CC(C)c1ccc(C2(C)NC(=O)N(CC(=O)NCC3COc4ccccc4O3)C2=O)cc1 (stereo not given),"inconclusive [inhibitor, single point]",–
Cc1ccc(N=Cc2c(O)n(-c3cc(Cl)ccc3N3CCOCC3)c(=O)c3ccccc23)cc1C,active: 7.31 µM,–
O=C1NNC(=O)C1c1ccccc1,inactive,–
Cc1ccccc1NC(=S)NCCC(c1ccccc1)c1ccccc1,"inconclusive [inhibitor, single point]",–
C=C(C)COc1ccc(-c2nc(N)ncc2Oc2ccccc2OCC)c(O)c1,"inconclusive [inhibitor, single point]",–
CCC[C@@H]1C[C@@H](C(=O)N[C@@H]([C@H]2O[C@H](SC)[C@H](O)[C@@H](O)[C@H]2O)[C@H](C)Cl)N(C)C1,inactive,–
Cc1[nH]c2ccccc2c1Cc1nnc(SCCC#N)o1,inactive,–
Cc1nc(C)c(C(=O)N(c2ccccc2F)C(C(=O)NCC2CCCO2)c2ccccc2)s1 (stereo not given),active: 25.9 µM,–
COc1cc2c(cc1OC)C(COc1ccc3c(C)cc(=O)oc3c1)N(C(=O)c1ccc(C)c(C)c1)CC2 (stereo not given),"inconclusive [inhibitor, single point]",–
Cc1ccc(C(=O)Nc2cccc(NC(=O)CN3CCCCC3)c2)cc1,"inconclusive [inhibitor, single point]",–
S=C(Nc1ccc(Cl)cc1)c1nc2ccccc2[nH]1,"inconclusive [inhibitor, single point]",–
CCOC(=O)c1oc2ccccc2c1NC(=O)CN1CCN(C)CC1,inactive,–
O=C(O)CCC(=O)Nc1ccc(OCC(=O)O)cc1,inactive,–
CCCS(=O)(=O)NC(=O)C1(C)CCCN(C(=O)c2cccc(C(F)(F)F)c2)C1 (stereo not given),inactive,–
Cc1ccn2c(CNCc3cnn(C)c3)c(C(=O)N3CCCCCC3)nc2c1,inactive,–
COCCn1c(SCC(=O)N2CCc3ccccc32)nc2c(c1=O)SC(C)C2 (stereo not given),"inconclusive [inhibitor, single point]",–
COc1ccc(Cl)cc1C(=O)NCC(c1ccc(N(C)C)cc1)N1CCOCC1 (stereo not given),"inconclusive [inhibitor, single point]",–
COc1cc(S(=O)(=O)N2CCCCC2)ccc1NC(=O)Cc1ccccc1,"inconclusive [inhibitor, partial curve]",–
COc1ccc(/C=N/NC(=O)c2ccoc2C)cc1OC,inactive,–
CN1CCN(C(=O)c2ccc(NS(=O)(=O)c3cccc([N+](=O)[O-])c3)cc2)CC1,inactive,–
O=C1NC(c2ccccc2)=C(c2ccc3ccccc3n2)C(c2ccc(F)cc2)N1 (stereo not given),"inconclusive [inhibitor, single point]",–
O=[N+]([O-])c1ccc(S(=O)(=O)Nc2cccc(-c3ccc(N4CCOCC4)nn3)c2)cc1,"inconclusive [inhibitor, full curve, poor fit]",–
